# Assay results published in publication PMC4336329 (PLoS ONE, 2015).
# Out of some 310,000 compounds screened, about 2,200 (0.71%) showed an effect of 50% or more. Effects have a minus sign here. Some of the results follow.
# Target: human ether-à-go-go-related gene (hERG) potassium channel (human, UniProt Q12809)
# Experiment: primary screen, population patch clamp on CHO cells stably expressing hERG
# Chain of human ether-à-go-go-related gene (hERG) potassium channel (Q12809 whole entry, looked up): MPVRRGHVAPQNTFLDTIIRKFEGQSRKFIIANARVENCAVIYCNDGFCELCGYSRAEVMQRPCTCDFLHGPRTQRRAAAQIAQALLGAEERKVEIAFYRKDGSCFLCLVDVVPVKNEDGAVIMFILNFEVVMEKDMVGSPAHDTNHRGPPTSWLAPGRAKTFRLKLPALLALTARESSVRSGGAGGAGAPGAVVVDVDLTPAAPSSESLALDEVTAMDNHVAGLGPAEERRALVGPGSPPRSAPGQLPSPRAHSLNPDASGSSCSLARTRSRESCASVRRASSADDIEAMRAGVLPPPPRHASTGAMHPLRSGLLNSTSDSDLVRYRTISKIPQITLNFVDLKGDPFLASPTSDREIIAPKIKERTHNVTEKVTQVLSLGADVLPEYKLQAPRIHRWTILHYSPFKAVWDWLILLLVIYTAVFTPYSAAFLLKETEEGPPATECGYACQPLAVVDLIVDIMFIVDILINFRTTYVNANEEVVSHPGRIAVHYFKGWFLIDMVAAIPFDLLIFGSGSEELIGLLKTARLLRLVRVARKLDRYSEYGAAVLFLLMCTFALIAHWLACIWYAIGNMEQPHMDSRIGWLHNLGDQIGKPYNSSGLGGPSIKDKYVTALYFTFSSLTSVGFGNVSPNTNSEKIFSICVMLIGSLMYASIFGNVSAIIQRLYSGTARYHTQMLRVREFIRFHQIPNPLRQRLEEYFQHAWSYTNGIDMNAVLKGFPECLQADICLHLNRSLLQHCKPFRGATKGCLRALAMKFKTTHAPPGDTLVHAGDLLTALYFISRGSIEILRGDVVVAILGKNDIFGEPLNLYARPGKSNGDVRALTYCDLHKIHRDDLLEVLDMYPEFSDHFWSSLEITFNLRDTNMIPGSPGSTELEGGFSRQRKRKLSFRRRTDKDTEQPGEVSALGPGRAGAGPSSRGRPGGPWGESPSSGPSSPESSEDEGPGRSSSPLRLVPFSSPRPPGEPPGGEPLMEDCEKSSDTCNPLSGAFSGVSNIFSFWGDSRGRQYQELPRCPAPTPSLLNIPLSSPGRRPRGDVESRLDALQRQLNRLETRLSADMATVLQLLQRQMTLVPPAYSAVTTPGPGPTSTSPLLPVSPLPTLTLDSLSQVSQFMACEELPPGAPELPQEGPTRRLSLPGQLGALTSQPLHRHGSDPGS
row,SMILES,"hERG current change (%, negative = inhibition) at 1uM"
1,CN(C)c1ccc(/C=N/NC(=O)C2CC2c2ccccc2)cc1 (stereo not drawn),9.78%
2,Cn1c(COc2ccccc2)nnc1SCCC(=O)Nc1ccccc1,-0.018%
3,CN1CCN(C(CNC(=O)C(=O)NC2CCCC2)c2ccc(F)cc2)CC1 (stereo not drawn),5.31%
4,O=C(c1ccco1)N1CCCN(Cc2nc(-c3cccs3)no2)CC1,5.47%
5,CCS(=O)(=O)N1CCCC(C(=O)NCc2ccc(C)cc2)C1 (stereo not drawn),8.94%
6,O=C(CSc1nc(-c2ccc(F)cc2)cc(C(F)(F)F)n1)NCc1ccco1,14.3%
7,COc1cc(/C=N/NC(=O)c2cccc3ccccc23)cc(OC)c1OC,12.9%
8,CCC(Oc1ccccc1)C(=O)Nc1ccc(C)c(S(=O)(=O)N2CCOCC2)c1 (stereo not drawn),3.57%
9,O=C(CCCC(=O)NCc1ccc(F)cc1)NCc1ccc(F)cc1,-19.4%
10,CC(C)Oc1ccc(-c2cc(C(=O)NCCN3CCOCC3)c3ccccc3n2)cc1,5.91%
11,O=C(CN(Cc1ccccc1)C(=O)CSc1nnc(COc2ccccc2)o1)NC1CCCC1,-1.24%
12,CN(/N=C/c1ccc2c(c1)OCO2)c1nc(N2CCOCC2)nc(N2CCOCC2)n1,12.2%
13,CCOC(=O)c1cc(C#N)c(SCc2ccc(C#N)cc2)nc1C,8.27%
14,NS(=O)(=O)c1ccc(CCNC(=O)COC(=O)/C=C/c2ccccc2Cl)cc1,7.79%
15,NC1=NS(=O)(=O)NC1c1cccc(F)c1 (stereo not drawn),14.4%
16,COc1ccc(-c2cc(=O)oc3cc(OCC(=O)N(C)C4CCS(=O)(=O)C4)ccc23)cc1 (stereo not drawn),18.8%
17,O=C(NCc1ccccc1)N1CCN(c2ccccc2)CC1,14.2%
18,COc1ccc(C(=O)O)cc1S(=O)(=O)NC(C)C12CC3CC(CC(C3)C1)C2 (stereo not drawn),9.53%
19,COc1ccc(S(=O)(=O)NCCSCc2ccco2)cc1C,5.09%

row,SMILES,"hERG current change (%, negative = inhibition) at 1uM"
1,C[N+]1(C)C2CCC1CC(OC(=O)C(CO)c1ccccc1)C2.[I-] (stereo not drawn),18.4%
2,Cc1ccccc1Nc1ccc(S(=O)(=O)N2CCOCC2)cc1[N+](=O)[O-],10.2%
3,Cl.O=C(CC1=NC2(CCCC2)Cc2ccccc21)N1CCOCC1,4.49%
4,O=C(Nn1c(-c2ccccc2)nc2ccccc2c1=O)C1CCC1,-0.0108%
5,O=C1NC(=O)C2(COC(c3ccncc3)OC2)S1 (stereo not drawn),17%
6,CCOc1ccc(N(CC(=O)Nc2ccc(OC)cc2)S(=O)(=O)c2c(C)noc2C)cc1,14.1%
7,Cc1ccc(S(=O)(=O)c2ccc(Oc3ccccc3)cc2)cc1,19.4%
8,COc1ccc(CN2CCNC(=O)C2CC(=O)NCCCC2CCCC2)c(C)c1C (stereo not drawn),0.33%
9,COc1ccc(NC2CCCN(C(=O)CCOc3ccccc3)C2)cc1 (stereo not drawn),4.87%
10,O=C(COc1ccc(C(=O)c2ccc(F)cc2)cc1)NCc1ccc(F)cc1,9.63%
11,COc1cc(CNCc2cccc(OC)c2OC)cc(OC)c1.O=C(O)C(=O)O,15.9%
12,COc1cc(OC)cc(C(=O)Nc2ccc3c(c2)CCCN3C(=O)c2cccs2)c1,9.55%
13,CC1(C)CN=C(N(Cc2ccccc2)C(=O)Nc2ccccc2)S1,9.46%
14,Cc1oc(-c2ccccc2)cc1C(=O)NCc1ccncc1,14.5%
15,COc1cc(OC)cc(C(=O)OCC(=O)c2cc(C)n(CC3CCCO3)c2C)c1 (stereo not drawn),-14.6%
16,COc1ccc(-c2[nH]c(-c3ccc(F)cc3)nc2SCC(=O)NCc2ccco2)cc1OC,19.9%
17,COc1ccc([C@H]2CC(=O)C=C(c3cccc(OC(F)(F)F)c3)C2)cc1,8.61%
18,Brc1ccc(Sc2cnc3ccccc3n2)cc1,8.32%
19,COC(=O)NC(NS(=O)(=O)c1ccccc1)(C(=O)OC)C(F)(F)F (stereo not drawn),7.51%

row,SMILES,"hERG current change (%, negative = inhibition) at 1uM"
1,COc1ccccc1NS(=O)(=O)c1cc(C(=O)NCc2ccncc2)ccc1C,-1.23%
2,C=CCn1c(=N)c(C(=O)NCCCOC)cc2c(=O)n3cc(C)ccc3nc21,-41.9%
3,Cc1cccc(NC(=O)CSc2nnc3ccc(-c4ccccn4)nn23)c1,6.41%
4,COC(=O)CSc1snnc1-c1ccc(Cl)cc1Cl,10.2%
5,O=C(Nc1cc2c3c(c1)CC(=O)N3CCC2)c1ccc(Br)o1,-1.28%
6,CCCN(CC(=O)Nc1cc(Cl)ccc1Cl)C(=O)c1ccc(N2CCCC2=O)cc1,-0.958%
7,OCC1(Cc2ccc(Cl)cc2)CCN(Cc2ccccc2F)CC1,-18.4%
8,CCOC(=O)Nc1cccc(NC(=O)c2ccccc2F)c1,2.12%
9,O=C(c1ccc2[nH]c3c(c2c1)CCCC3)N1CCN(c2ccc(F)cc2)CC1,10%
10,Clc1ccc(-n2ncc3c(N4CCCC4)ncnc32)cc1,3.49%
11,COc1ccc(CCN2CC(C(=O)Nc3ccccc3F)CC2=O)cc1OC (stereo not drawn),2.93%
12,O=C(N/N=C/C=C/c1ccccc1)C(O)c1ccccc1 (stereo not drawn),5.58%
13,Nc1nnc(SCc2ccc3c(c2)OCO3)s1,4.9%
14,COc1ccccc1CC(Cc1nc2ccccc2[nH]1)c1nc2ccccc2[nH]1 (stereo not drawn),-1.64%
15,S=C(NCCc1ccccc1)NCCc1cnc[nH]1,11.3%
16,O=C(c1ccc(N2C(=O)CCC2=O)cc1)N1CCN(c2ccccc2)CC1,14.2%
17,COC(=O)C(CC(C)C)NC(=O)/C=C/c1ccccc1Cl (stereo not drawn),10.6%
18,COc1ccc(/C=N/Nc2cc(OC)ncn2)cc1,14.6%
19,CC(C)(C)NC(=O)CSc1nc(-c2ccccc2)c(-c2ccccc2)[nH]1,-2.4%
